These results are taken from article PMC6919601, “Identification of Plasmodium dipeptidyl aminopeptidase allosteric inhibitors by high throughput screening” (PLoS ONE, 2019).

Out of some 110,000 compounds screened, about 230 (0.21%) showed an effect of 50% or more. Some of the results follow.
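Note: 30 min substrate incubation versus DMSO and 10 µM JCP410 controls.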

The target of the assay is DPAP1 (Plasmodium falciparum, UniProt Q8IIJ9). Nature of the assay: primary screen, percent inhibition; read by cleavage of a fluorogenic dipeptide substrate; higher = more effect of the substance. Also on record: species or system P. falciparum D10 trophozoite lysates; single well.
Sequence of DPAP1 (Q8IIJ9 whole entry, looked up): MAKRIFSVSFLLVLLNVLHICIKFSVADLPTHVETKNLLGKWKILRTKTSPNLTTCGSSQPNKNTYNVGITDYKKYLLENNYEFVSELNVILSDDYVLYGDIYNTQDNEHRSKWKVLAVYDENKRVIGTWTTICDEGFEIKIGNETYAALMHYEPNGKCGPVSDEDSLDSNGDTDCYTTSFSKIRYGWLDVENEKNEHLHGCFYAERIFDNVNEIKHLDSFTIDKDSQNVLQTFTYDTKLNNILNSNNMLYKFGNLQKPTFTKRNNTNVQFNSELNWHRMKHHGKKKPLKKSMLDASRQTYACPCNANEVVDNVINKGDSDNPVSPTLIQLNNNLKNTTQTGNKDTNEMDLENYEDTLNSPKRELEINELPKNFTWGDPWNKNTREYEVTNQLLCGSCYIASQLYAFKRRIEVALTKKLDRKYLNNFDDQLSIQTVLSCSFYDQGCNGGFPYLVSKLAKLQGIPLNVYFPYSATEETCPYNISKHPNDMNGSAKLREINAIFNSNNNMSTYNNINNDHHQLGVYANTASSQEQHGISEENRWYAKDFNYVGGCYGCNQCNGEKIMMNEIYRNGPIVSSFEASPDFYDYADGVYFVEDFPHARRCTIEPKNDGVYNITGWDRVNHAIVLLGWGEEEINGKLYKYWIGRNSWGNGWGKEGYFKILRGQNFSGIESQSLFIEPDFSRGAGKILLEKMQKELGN
For the molecule `COc1ccc(C(=O)NC(c2ccccc2)c2ccccc2)cc1OC`, the “% Inhibition @ 10 uM” value came to 0.431%. The same measure for `Cc1ccc(NC(=O)CN2CCOCC2)cc1Br`: 5.97%. To `COc1ccccc1C1C(C#N)=C(N)N(c2cccnc2)C2=C1C(=O)CC(C)(C)C2` (centres unmarked) belongs 2.01%; to `CCOc1ccc(/C=C(\C#N)C(N)=O)cc1`, -5.73%; to `Cc1ccc2c(c1)C1CCCC3C1N2CC(=O)N3Cc1ccccc1` (centres unmarked), 0.345%. The same measure for `CN(C)c1ccc2c(c1)OC(N)=C(C#N)C2c1cccc(F)c1` (centres unmarked): -4.3%; for `COc1ccc2cc(Br)ccc2c1CC(=O)Nc1nccs1`: -1.37%; for `Cc1ccc(C)c(OCc2ccc(C(=O)N3N=C(C(F)F)CC3(O)C(F)F)o2)c1` (centres unmarked): -0.116%. On to `CCCN1CCN(C(=O)c2ccc3c(c2)sc2nc(-c4ccc(OC)cc4)cn23)CC1`, for which the “% Inhibition @ 10 uM” value was found to be 15.3%. As to `Cc1ccc(Cn2c(=O)n(CCC(=O)NCc3ccc4c(c3)OCO4)c(=O)c3sccc32)cc1`, the “% Inhibition @ 10 uM” value is given as -1.21%.

For the molecule `O=C1CS/C(=N/c2ccc(Br)cc2)N1Cc1ccccc1`, the “% Inhibition @ 10 uM” value was 0.24%.

For `Cc1cc(OCC(=O)Nc2cccc(-c3nc4ncccc4o3)c2)ccc1Cl`, the “% Inhibition @ 10 uM” value is reported as 0.214%. Take `O=C(COc1ccccc1)N1CCN(C(=O)c2ccccc2F)CC1`: the “% Inhibition @ 10 uM” value was -0.999%. To `O=C(OCC1OC(O)C(O)C(O)C1O)C1CCCN1C(=O)OCc1ccccc1` (centres unmarked) belongs 0.00784%; to `CN(CCN1CCOCC1)C1CCN(C(=O)CNC(=O)/C=C/c2cccs2)CC1`, 0.689%.

As to `N=C1S/C(=C\c2ccc(N3CCOCC3)cc2)C(=O)N1c1ccc(Br)cc1`, the “% Inhibition @ 10 uM” value was 0.605%. As to `N=c1c(C(=O)NCCc2ccccc2)cc2c(=O)n3ccccc3nc2n1CC1CCCO1` (centres unmarked), the “% Inhibition @ 10 uM” value is recorded as -3.27%. With `COc1ccc(C(=O)Nc2nc(-c3ccc(F)cc3)cs2)cc1OC`, the “% Inhibition @ 10 uM” value is 6.35%. On to `CC(NC(=O)c1ccccc1NS(=O)(=O)c1ccc2c(c1)OCCO2)c1ccccc1` (centres unmarked), for which the “% Inhibition @ 10 uM” value was -1.02%.

`CCC(C)NC(=O)CC(c1ccccc1)c1cc(Cl)ccc1O` (centres unmarked): the “% Inhibition @ 10 uM” value is given as -4.12%. To `CSc1ncc(C(=O)NCc2cccc(Br)c2)c(C)n1` belongs 5.86%; to `CC1=C(C(=O)Nc2ccc(Br)cc2)C(c2cccs2)NC(S)=N1` (centres unmarked), -9.49%; to `Cc1ccc(C(=O)N/C(=C/c2ccccc2)C(=O)NC(CC(C)C)C(=O)O)cc1` (centres unmarked), 3.54%. For the molecule `CCCC1=C(C(=O)OCC)C(c2ccccc2F)NC(=O)N1` (centres unmarked), the “% Inhibition @ 10 uM” value was -0.267%. Take `OC1(c2ccc(Br)cc2)CCN(Cc2ccc(F)cc2)CC1`: the “% Inhibition @ 10 uM” value is listed as -0.292%.

On to `COc1cccc(C2C(C#N)=C(N)Oc3[nH]nc(-c4ccccc4)c32)c1` (centres unmarked), for which the “% Inhibition @ 10 uM” value is -2.56%.

As to `Cc1ccc(-c2[nH]nc3c2C(c2ccccc2)NC3=O)cc1` (centres unmarked), the “% Inhibition @ 10 uM” value is listed as -1.54%. The same measure for `O=C(Nc1ccc(N2CCOCC2)c2nonc12)C1CCCC1`: -1.07%; for `Cc1ccc(C(=O)NCc2cc(-c3nn(C)c(=O)c4ccccc34)ccc2C)cc1`: -1.17%. The same measure for `CCCN(CCC)c1ncnc2c1cnn2-c1ccc(OC)cc1`: -2.84%; for `CCC(=O)Nc1ccc2nc(SCC(=O)N3CCCC3)sc2c1`: 1.82%. On to `Cn1cc(/C=C2\NC(=O)N(Cc3ccc(Cl)cc3)C2=O)c2ccccc21`, for which the “% Inhibition @ 10 uM” value is recorded as 3.8%. The same measure for `O=C(O)C1NCCc2ccccc21` (centres unmarked): 2.65%. The same measure for `Cc1ccc2c(c1)[C@@H]1CN(C)CC[C@@H]1N2C(=O)CCCCCN1C(=O)c2ccccc2C1=O`: 5.48%. As for `CCOc1ccc(NC(=O)COc2ccc(C(=O)NC3CCCCC3)cc2)cc1`, the “% Inhibition @ 10 uM” value came out at 0.709%. To `COc1ccc(O)c(-c2cc(-c3ccc(C)cc3)[nH]n2)c1` belongs 2.17%. On to `Cc1ccc2oc(C(F)F)cc(=O)c2c1`, for which the “% Inhibition @ 10 uM” value is recorded as -3.4%. For the molecule `N#CCNC(=O)[C@H](Cc1cc(I)c(O)c(I)c1)NC(=O)c1ccc(N2CCOCC2)cc1`, the “% Inhibition @ 10 uM” value is on record as -3.04%. Consider `COc1cccc(C(=O)Nc2ccc(C)cc2Br)c1`, for which the “% Inhibition @ 10 uM” value is -2.22%. To `Cc1ccc(C)c(Cc2c(C)nc(C)nc2O)c1` belongs -5.1%; to `COc1ccc(CCNC(=O)OCc2ccccc2)cc1OC`, -5.4%; to `CCOC(=O)c1c(C)nc2ccccc2c1N`, 0.231%. As to `O=C1C2C3CCC(O3)C2C(=O)N1c1ccc(-c2ccc(Cl)cc2)cc1` (centres unmarked), the “% Inhibition @ 10 uM” value was -2.77%. To `O=C1C2C3C=CC(C2C(=O)N1c1nccs1)C1C(=O)N(c2nccs2)C(=O)C31` (centres unmarked) belongs -0.969%; to `CC(C)(C)C(=O)NCC(c1cccnc1)N1CCOCC1` (centres unmarked), -0.719%; to `C=C(C)Cn1c(CCNC(=O)c2cc(OC)c(OC)c(OC)c2)nc2ccccc21`, 2.83%. To `C=CCn1c(=N)c(S(=O)(=O)c2ccc(Cl)cc2)cc2c(=O)n3cccc(C)c3nc21` belongs 5.12%; to `Cc1cccc(NC(=O)c2ccc(OC(F)F)cc2)c1C`, 1.87%; to `Cc1ccc(-n2c3c(c(=O)[nH]c2=O)C(NC(=O)c2ccc(F)cc2)(C(F)(F)F)C(=O)N3)cc1` (centres unmarked), -7.18%. To `CCOc1ccc(CNCCc2ccc(OC)c(OC)c2)cc1` belongs 1.26%.
